94 sequences from PMC10668032 can be followed below.

The list shows a part of the results. At the low end of the ranking, values are background and their order means little.

For the experiment, the target named is SIX1-Q177R homeodomain (UniProt Q15475). As to the kind of experiment: universal protein binding microarray. Particulars: Universal all-10-mer PBM (8x60K, AMADID 030236), 300 nM GST-tagged protein, Alexa Fluor 488 anti-GST; buffer, salt, pH and temperature not stated; high values mean tight binding; most listed sequences are background and not binding sites; double strand, one strand shown.
For AGATTGCT, the binding signal is -0.0116 E-score.
In the case of AAGCCAAA, the binding signal was -0.272 E-score.
On to CGCTCTAA, for which the binding signal was -0.129 E-score.
Regarding GGGCCTTA, the binding signal was -0.119 E-score.
For ACACTAGT the value was 0.389 E-score; for CCACGAGG, -0.0701 E-score; for ACACCCAC, 0.468 E-score.
AGTAATAT: the binding signal was -0.0125 E-score.
The value for ATATAGAC was 0.0309 E-score.
For CCTAGCGA the value was -0.134 E-score; for ACTTCCAG, -0.113 E-score; for AAAATCAT, -0.214 E-score.
For CCAGAACG the value was 0.0814 E-score; for AACAGCCG, -0.234 E-score; for ACTACACC, 0.488 E-score.
Consider GGACCTTA, for which the binding signal was -0.125 E-score.
Consider TCGGTAGA, for which the binding signal is -0.146 E-score.
Take CTATTGGA: the binding signal was -0.188 E-score.
With AAAACGGC, the binding signal was -0.0563 E-score.
The value for AGCTTGTG was -0.159 E-score; that for AACAAGGT was 0.0167 E-score.
For the sequence ATCGAGCA, the binding signal was -0.219 E-score.
Take AAAGGATA: the binding signal is 0.14 E-score.
Turning to CAAGATGG, the binding signal turned out to be 0.0275 E-score.
Regarding GGTGCTCA, the binding signal was found to be 0.25 E-score.
For CGTCCCCC, the binding signal turned out to be 0.0269 E-score.
On to GGGGCCTA, for which the binding signal was -0.138 E-score.
On to AAGTGAGG, for which the binding signal is -0.0254 E-score.
Regarding ACGTATCC, the binding signal was 0.124 E-score.
Regarding AAGTTTTA, the binding signal was -0.153 E-score.
Take CATGCTTC: the binding signal was -0.283 E-score.
With ATAATACG, the binding signal was 0.0432 E-score.
As to ACCGACCC, the binding signal was 0.192 E-score.
For ATATTTTA, the binding signal was -0.144 E-score.
As for GCCTTGTA, the binding signal is -0.129 E-score.
Regarding GGCCAAAC, the binding signal is -0.149 E-score.
In the case of CAATTTGA, the binding signal is -0.215 E-score.
Consider CCCTATTC, for which the binding signal came out at 0.0919 E-score.
In the case of GCACATGA, the binding signal was -0.0817 E-score.
AGCGTATC: the binding signal was 0.0781 E-score.
TAGAGTCA: the binding signal was determined as 0.196 E-score.
For the sequence GAGACTAA, the binding signal is -0.244 E-score.
GAATTGTC: the binding signal was -0.126 E-score.
With AGATGCTG, the binding signal was -0.128 E-score.
Take CGGCCACG: the binding signal is -0.184 E-score.
Turning to CGTCGTAC, the binding signal was 0.0751 E-score.
On to TCCGGCCA, for which the binding signal was -0.127 E-score.
As for CAAGAACA, the binding signal worked out at 0.134 E-score.
Regarding ATCGGACC, the binding signal was -0.0911 E-score.
For ATGCCTAG the value was -0.17 E-score.
With AACGTTCG, the binding signal is -0.275 E-score.
As to AAACACAC, the binding signal came to 0.344 E-score.
For the sequence ACTCGAGG, the binding signal was 0.048 E-score.
In the case of ATCTGGGG, the binding signal was 0.0854 E-score.
Take GTAGCCAC: the binding signal came out at 0.00912 E-score.
The value for ACACCTAT was 0.448 E-score; that for GCTACCAA was -0.0991 E-score.
As for AGTCGTGG, the binding signal was determined as 0.076 E-score.
As for CTTCACTA, the binding signal is -0.0348 E-score.
Take AAGCTACG: the binding signal was -0.282 E-score.
Consider AATCCCAC, for which the binding signal came to 0.0307 E-score.
For AACGGGAG, the binding signal was -0.0386 E-score.
For GCCTGCAC, the binding signal stood at 0.124 E-score.
For the sequence CCGAACCC, the binding signal was determined as 0.186 E-score.
Turning to CACCACGC, the binding signal is 0.282 E-score.
As for ACTGGGCT, the binding signal is 0.0373 E-score.
Turning to AGGCACAA, the binding signal is -0.021 E-score.
For the sequence CATAGCGC, the binding signal is 0.0151 E-score.
Consider ATTCAGCG, for which the binding signal was -0.222 E-score.
With AGGATTCC, the binding signal was -0.0501 E-score.
As to GGAACCCC, the binding signal stood at 0.165 E-score.
As to CCAAAACA, the binding signal amounted to 0.0576 E-score.
For CAACGTGC, the binding signal was -0.235 E-score.
For TTATTAAA the value was -0.084 E-score; for CGCATTTC, -0.154 E-score.
The value for ACATACAG was 0.00972 E-score; that for ACGGAAGG was -0.0151 E-score; that for GTGTACTA was 0.438 E-score.
As for GTCTATGA, the binding signal was -0.154 E-score.
AATCGTTA: the binding signal was -0.198 E-score.
The value for ATTGTGCC was -0.0983 E-score.
For AATTAGCT, the binding signal was -0.0897 E-score.
Take AGGTACGG: the binding signal was determined as 0.0782 E-score.
Consider AATATTCA, for which the binding signal was -0.189 E-score.
In the case of CGTTTACA, the binding signal was 0.154 E-score.
With GCCTTCAA, the binding signal was -0.0709 E-score.
On to CCATCAGA, for which the binding signal was 0.00439 E-score.
For GATGTTCA the value was -0.176 E-score; for AGGTGTCA, 0.486 E-score; for ATTACACG, 0.435 E-score.
Regarding GCGCCCGC, the binding signal is -0.169 E-score.
For the sequence CACACGAG, the binding signal worked out at 0.238 E-score.
Regarding ACTAGGCA, the binding signal was -0.0193 E-score.
For AAGACAGG the value was -0.101 E-score.
